{
  "source": "PubChem BioAssay (NCATS)",
  "test": "qHTS Assay for Lipid Storage Modulators (AID 1519)",
  "details": "Drosophila S3 cells, BODIPY lipid droplet/cell ratio, laser cytometry, cells loaded with oleic acid",
  "procedure,_shortened": "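Cells seeded at 5,000 per well were treated with compounds over a concentration series and loaded with oleic acid (400 uM, as added). Lipid droplet fluorescence (488 nm excitation, 500-530 nm channel) was read by laser-scanning cytometry and normalized to 20 uM Triacsin C.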",
  "key": {"[1]": {"details": "measured here: cell count channel max response"}, "[2]": {"details": "measured here: cell number channel AC50"}, "[3]": {"details": "measured here: lipid (BODIPY) channel AC50"}, "[4]": {"details": "measured here: lipid channel max response"}},
  "note": "Some of the results follow. Shown are side measurements of this screen, not its main read-out; they come without a call. Most of these compounds were active or inconclusive in the main read-out, so they are no random draw. The note in brackets gives the kind of curve behind each potency; many fits are weak. Tags tell the direction and shape of the fitted curve.",
  "data": [
    {"smiles": "CC1=CC(=O)C2=C(C)CCC3C(C)C(=O)OC3C12", "note": "(centres undefined)", "values": [
      {"measurement": "max response", "setting": "[1]", "result": 134, "unit": "%"},
      {"measurement": "AC50", "setting": "[2]", "result": "35.5 µM [rising, partial curve, poor fit]"},
      {"measurement": "AC50", "setting": "[3]", "result": "31.6 µM [rising, partial curve, poor fit]"},
      {"measurement": "max response", "setting": "[4]", "result": 186, "unit": "%"}
    ]},
    {"smiles": "O=c1c(O)c(-c2ccc(O)cc2)oc2cc(O)ccc12", "values": [
      {"measurement": "max response", "setting": "[1]", "result": -43, "unit": "%"},
      {"measurement": "AC50", "setting": "[2]", "result": "39.8 µM [falling, single point]"},
      {"measurement": "AC50", "setting": "[3]", "result": "39.8 µM [falling, single point]"},
      {"measurement": "max response", "setting": "[4]", "result": -55.7, "unit": "%"}
    ]},
    {"smiles": "O=c1c(-c2ccc(Cl)cc2)nc2cncnc2n1Cc1ccccc1", "values": [
      {"measurement": "max response", "setting": "[1]", "result": 15.4, "unit": "%"},
      {"measurement": "AC50", "setting": "[2]", "result": "1.58 µM [rising, partial curve, poor fit]"},
      {"measurement": "AC50", "setting": "[3]", "result": "0.0398 µM [rising, full curve, poor fit]"},
      {"measurement": "max response", "setting": "[4]", "result": 26.4, "unit": "%"}
    ]},
    {"smiles": "CNc1ccnc(-c2ccccc2C)n1", "values": [
      {"measurement": "max response", "setting": "[1]", "result": 32.6, "unit": "%"},
      {"measurement": "AC50", "setting": "[2]", "result": "8.91 µM [rising, full curve, poor fit]"},
      {"measurement": "AC50", "setting": "[3]", "result": "8.91 µM [rising, partial curve, poor fit]"},
      {"measurement": "max response", "setting": "[4]", "result": 40.8, "unit": "%"}
    ]},
    {"smiles": "N#Cc1cccc(-c2nccc(-n3ccnc3)n2)c1", "values": [
      {"measurement": "max response", "setting": "[1]", "result": 16.5, "unit": "%"},
      {"measurement": "AC50", "setting": "[2]", "result": "0.0224 µM [rising, full curve, poor fit]"},
      {"measurement": "AC50", "setting": "[3]", "result": "0.0251 µM [rising, full curve, poor fit]"},
      {"measurement": "max response", "setting": "[4]", "result": 19.8, "unit": "%"}
    ]},
    {"smiles": "Cc1noc(C)c1-c1ccc2ncnc(NCCN3CCOCC3)c2c1", "values": [
      {"measurement": "max response", "setting": "[1]", "result": 32, "unit": "%"},
      {"measurement": "AC50", "setting": "[2]", "result": "2 µM [rising, full curve, poor fit]"},
      {"measurement": "AC50", "setting": "[3]", "result": "2 µM [rising, full curve, poor fit]"},
      {"measurement": "max response", "setting": "[4]", "result": 28.9, "unit": "%"}
    ]}
  ]
}
